Measurements reported in PubChem BioAssay AID1508642 (National Center for Advancing Translational Sciences (NCATS), 2021).
About 200 (0.47%) of roughly 43,000 compounds were called active. About 12% were inconclusive and are not listed. Calls follow the shape of the dose curve; as a rule, active = well fitted cell-killing curve with a large enough effect; inconclusive = small, poorly fitted or top-dose-only effect, or effect the other way; inactive = flat fitted curve, though single readings scatter. The list shows a part of the results.

Experiment: Cell viability qHTS assay in S16 Pmp22-F2sN cells; also: nearly all actives have a fitted effect of over 65% in size
Settings: S16 Pmp22-F2sN Schwann cells (luciferase reporters placed in the Pmp22 gene) viability, CellTiter-Glo, 24 h; series mostly up to 57.5 µM; activity change, negative = cytotoxicity: at the top concentration
How it was run: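 Seed 500-1,000 S16 Pmp22-F2sN cells per well in phenol-red-free DMEM with 10% heat-inactivated FBS; pin-add 23 nL compound; incubate 24 h at 37C; add CellTiter-Glo, wait 15 min protected from light; read luminescence.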
% is scaled to controls: 0 for no effect and ±100 for the full control effect.

SMILES | activity change, negative = cytotoxicity
O=C(COCc1cc(-c2ccco2)on1)Nc1ccc(OC(F)(F)F)cc1 | inactive: 4.72%
O=C(CNS(=O)(=O)c1ccc(Br)s1)N1CCN(c2ccccc2F)CC1 | inactive: 6.28%
Cc1nn(CC(=O)N2CCN(c3ccccc3)CC2)c(=O)c2cccn12 | inactive: 14%
Cc1ccc(-n2ncc3c(NCCC4=CCCCC4)ncnc32)cc1C | inactive: 0.104%
Cc1oc(-c2ccc(Cl)cc2)nc1Cn1c(=O)cc(-c2ccccc2)c2c(C)nn(C)c21 | inactive: -4.18%
NS(=O)(=O)c1ccc(CCNc2nc3c(-c4cccc(F)c4)nnn3c3ccc(Cl)cc23)cc1 | inactive: 20.7%
CCOc1ccccc1NC(=O)Cn1nnc2sc3c(c2c1=O)CCC(C(C)(C)C)C3 (centres undefined) | inactive: 1.4%
COc1ccc(NC(=O)Cn2cc(C(=O)C3CC3)c3ccccc32)cc1 | inactive: 5.12%
COC(=O)c1cc(NC(=O)CN(c2ccccc2)S(=O)(=O)N(C)C)ccc1Cl | inactive: 11.5%
Cc1cc(C)c(/C=C/c2onc(C)c2S(=O)(=O)N2CCC(C(=O)NCc3ccco3)CC2)c(C)c1 | inactive: -18.3%
CCOC(=O)N1CCN(C(=O)CN(c2ccc(C)cc2C)S(=O)(=O)c2ccccc2)CC1 | inactive: 14.1%
O=C(CN1C(=O)C2(SCC(=O)N2c2cccc(Cl)c2)c2ccccc21)NC1CCCCC1 (centres undefined) | inactive: -3.32%
Cc1ccc(CSc2nc3ccc(NC(=O)COc4ccccc4F)cc3s2)cc1 | inactive: 17%
O=C(CCCCn1c(=O)[nH]c2ccsc2c1=O)N1CCN(c2cccc(Cl)c2)CC1 | inactive: -17.7%
COc1ccc(Cl)cc1N(C)C(=O)Cn1cnc2sc(C)c(S(=O)(=O)N3CCN(c4ncccn4)CC3)c2c1=O | inactive: 8.95%
CCC(CC)C(=O)Nc1ccccc1C(=O)OCc1cc(=O)n2nc(C3CCCCC3)sc2n1 | inactive: 2.47%
CCOc1ccc(CNC(=O)Cn2ncc3c(=O)oc4ccc(C)cc4c32)cc1 | inactive: -0.501%
Cc1ccc(C)c(CN2C(=O)c3ccccc3S(=O)(=O)c3ccc(C(=O)N4CCOCC4)cc32)c1 | inactive: -18.6%
O=S(=O)(c1cccs1)N1CCN(c2ccc(Cl)cc2)CC1 | inactive: -2.51%
COc1ccc(C(=O)N2CCCCC2CCN2CCCCC2)cc1 (centres undefined) | inactive: 7.11%
COc1ccc(Cl)cc1NC(=O)[C@H]1O[C@@H]2OC(C)(C)O[C@@H]2[C@H]2OC(C)(C)O[C@H]21 | inactive: 11.2%
CCOc1ccccc1CNC(=O)CCCN1C(=O)CCn2nc(-c3cccn3C)cc21 | inactive: 6.06%
Cc1ccc(-c2cc(C(F)(F)F)n3nc(C(=O)Nc4ccc(C#N)cc4)cc3n2)cc1 | inactive: -0.467%
Cc1ccc(CNC(=O)C2CCN(S(=O)(=O)c3ccc4c(c3)oc(=O)n4C)CC2)cc1 | inactive: 7.64%

SMILES | activity change, negative = cytotoxicity
CCc1ccc(-n2nc(C)c3c(C)cc(=O)n(CC(=O)Nc4ccc(OC)c(OC)c4)c32)cc1 | inactive: -19.3%
Cc1cccc2sc(N3CCN(C(=O)c4ccco4)CC3)nc12 | inactive: -5.16%
Cc1cccc(S(=O)(=O)c2cn(Cc3ccccc3)c3cc(N4CCCC(C)C4)c(F)cc3c2=O)c1 (centres undefined) | inactive: 5.69%
CSc1nn(Cc2cccc(F)c2)c(N(C(C)=O)C(C)=O)c1S(=O)(=O)c1ccccc1 | inactive: 16.1%
COc1ccc(OC)c(CNCc2c(C(=O)O)n(Cc3ccccc3)c3cc(OC)ccc23)c1 | inactive: 12.2%
CCC(=O)N1CCc2cc(S(=O)(=O)NC(CC(C)C)C(=O)Nc3ccc(CC)cc3)ccc21 (centres undefined) | inactive: -11.6%
O=C(CN1N=C(c2ccc(Cl)cc2)CCC1=O)NCc1ccc(F)cc1 | inactive: -16%
Clc1ccc(CSc2nc(NCCc3ccccc3)c3ccccc3n2)cc1 | inactive: -4.77%
O=C(CC1NCCNC1=O)Nc1cccc(F)c1 (centres undefined) | inactive: 1.06%
Cc1ccc2ncc3c(-c4ccccc4)nn(CC(=O)NC4CCCCC4)c3c2c1 | inactive: -15.2%
COc1ccccc1N1CCN(CCCNC(=O)Cn2ncc3c([nH]c4ccccc43)c2=O)CC1 | inactive: 7.03%
COc1ccc(NC(=O)CSC2=Nc3ccccc3C3=NC(CCC(=O)NCc4ccco4)C(=O)N23)cc1 (centres undefined) | inactive: 0.758%
Cc1ccc(NC(=O)Cn2c(=O)oc3cc(S(=O)(=O)N4CCCC4)ccc32)cc1F | inactive: -5.94%
COc1cccc(C2C(C(=O)Nc3cccnc3)=C(C)Nc3nc(SCc4ccccc4)nn32)c1 (centres undefined) | inactive: 16%
CCOC(=O)c1ccc(NC(=O)C2CCCN(c3ncnc4onc(C)c34)C2)cc1 (centres undefined) | inactive: 3.75%
Cc1nc2ccc(S(=O)(=O)CCC(=O)Nc3ccccc3C)cc2s1 | inactive: -0.296%
COc1ccc(Nc2nnc(-c3ccc(C)c(S(N)(=O)=O)c3)c3ccccc23)cc1 | inactive: 17.3%
CC(=O)c1cccc(NC(=O)C2=CC(c3ccco3)=NS(=O)(=O)N2C)c1 | inactive: 5.89%
COc1ccc(CCNc2oc(COc3ccc(Cl)cc3)nc2C#N)cc1OC | inactive: -6.6%
COc1ccccc1CNC(=O)C(=O)NCC(c1ccc2c(c1)OCO2)N1CCOCC1 (centres undefined) | inactive: -15.8%
CCc1ccc(CNc2nc3nc(C)c(Cc4ccccc4)c(=O)n3[nH]2)cc1 | inactive: -0.428%
CCc1ccc(-c2nc(SCC(=O)NCCOC)c(-c3ccc(C)cc3)[nH]2)cc1 | inactive: 13.7%
CCOc1ccc(CNCCSc2nnnn2C)cc1OC | inactive: 17%
O=C(CS(=O)(=O)c1cccc2nsnc12)N1CCN(c2ccccc2)CC1 | inactive: 0.823%

SMILES | activity change, negative = cytotoxicity
Cc1c(-c2nnc(SCC(=O)Nc3ccc(Br)cc3)o2)nnn1-c1ccc(F)cc1 | inactive: 12.9%
O=C(Cn1c(=O)n(Cc2ccc(C(=O)NCc3ccc4c(c3)OCO4)cc2)c(=O)c2ccccc21)Nc1ccc(F)cc1F | inactive: 3%
COC(=O)c1ccn(-c2nc(-c3ccc(Cl)cc3)cc(C(F)(F)F)n2)n1 | inactive: -0.996%
COC(=O)c1ccccc1NC(=O)c1cn2c3c(ccc(Cl)c3c1=O)OC(C)C2 (centres undefined) | inactive: 5.1%
CCCCNC(=O)C1CCN(c2nc3ccc(C)cc3[nH]2)CC1 | inactive: 9.26%
CC(C)c1ccc(CN(Cc2ccco2)c2cnc(S(C)(=O)=O)nc2C(=O)Nc2ccccc2)cc1 | inactive: -18.2%
COc1ccc(-c2nc(C)c(CCNS(=O)(=O)c3ccc(F)cc3)s2)cc1OC | inactive: -2.76%
Cc1ccc2oc(-c3cccc(NC(=O)c4ccc(N5CCC(C)CC5)c([N+](=O)[O-])c4)c3)nc2c1 | inactive: -0.645%
CC(C)(C)C(=O)Nc1nc2nc(-c3ccccc3)cc(=O)n2[nH]1 | inactive: 2.39%
CCCCNC(=O)CN1C(=O)c2c(c3ccccc3n2C)C1c1ccc(OC)cc1 (centres undefined) | inactive: 4.52%
CC(=O)c1ccc(NC(=O)CSc2c(C(C)C)cnc3c2c(=O)n(C)c(=O)n3C)cc1 | inactive: -22.7%
COc1ccc(C2CC(=O)c3cc(-c4nc(-c5cccc([N+](=O)[O-])c5)cs4)c(=O)n(-c4ccc(F)cc4)c3C2)cc1 (centres undefined) | inactive: -3.28%
CCc1cccc(C)c1NC(=O)c1cc(S(=O)(=O)N2CCC3(CC2)OCCO3)ccc1F | inactive: -13.4%
Cn1c(=O)n(C)c2cc(CNCc3ccccc3)ccc21 | inactive: 5.65%
Cc1cc(C)c(S(=O)(=O)Nc2cc(Cl)c3oc4c(c3c2)C(=O)CCC4)cc1C | inactive: -1.11%
CCOC(=O)Cn1c(=O)n(C2CCCCC2)c2nc(-c3ccc(OC)cc3)nc(C(N)=O)c21 | inactive: 1.51%
COc1ccc(Cc2nc3ccc(C(=O)NCCc4ccc(OC)c(OC)c4)cc3o2)cc1 | inactive: -8.79%
Cc1cc(C)cc(NC(c2nnc(-c3cccc(F)c3)o2)c2ccc(F)cc2Cl)c1 (centres undefined) | inactive: 1.76%
CCOc1ccc(C(=O)Nc2ccc(-c3nnc4n3CCCCC4)cc2)cc1OCC | inactive: -3.96%
Cc1cccc2c(=O)cc(CSCC(=O)Nc3ccc(Cl)cc3)[nH]c12 | inactive: -24%
Cc1ccc(Cn2c(=O)n(Cc3ccccc3)c(=O)c3c(C)c(C)sc32)cc1 | inactive: -8.26%
Cc1ccc(CNC(=O)C(=O)NCC(c2ccco2)S(=O)(=O)c2ccc(C)cc2)cc1 (centres undefined) | inactive: -4.95%
Cc1ccc(CNS(=O)(=O)c2cc(Br)cc3c2N(C(=O)C2CC2)CC3)cc1 | inactive: 11.9%
Cc1cc(F)ccc1NC(=O)C1CCN(S(=O)(=O)c2ccc3c(c2)CCCC(=O)N3)CC1 | inactive: -1.01%

SMILES | activity change, negative = cytotoxicity
Cc1cccc(C(=O)Nc2ccc(C(=O)OCc3cc(=O)n4c(C)csc4n3)cc2)c1 | inactive: 0.718%
NC(=O)CSc1oc(-c2cccs2)nc1S(=O)(=O)c1ccc(Br)cc1 | inactive: -0.501%
COc1ccc(S(=O)(=O)NCC(c2ccco2)N2CCN(c3ccc(F)cc3)CC2)cc1 (centres undefined) | inactive: -0.539%
CC(C)(C)NC(=O)CSc1nc(-c2ccc(F)cc2)cc(C(F)(F)F)n1 | inactive: 2.8%
CC(C)c1cnc2c(c1SCC(=O)c1ccccc1)c(=O)n(C)c(=O)n2C | inactive: 2.9%
O=C(NCc1ccccc1)c1ccc2c(c1)N(Cc1ccccc1)C(=O)c1ccccc1S2(=O)=O | inactive: -4.32%
O=C(Cn1c(=O)c(C(F)(F)F)nc2ccccc21)Nc1ccc(Br)cc1F | inactive: 1.57%
COc1ccc(S(=O)(=O)N2CCN(c3ccccc3)CC2)cc1-c1noc(C)n1 | inactive: 3.54%
COC(=O)c1ccc(NC(=O)N2CCN(c3nnc(C)c4c(C)n(-c5ccccc5)nc34)CC2)cc1 | inactive: 1.44%
O=C(c1cnc2c(c1)COc1ccccc1-2)c1ccccc1O | inactive: 8.58%
Cn1nc(-c2ccccc2F)c2cc(C(=O)Nc3cc(F)ccc3F)sc21 | inactive: 13.5%
Cc1ccccc1Cn1cc(CCC(=O)NCc2cccc(Br)c2)c2ccccc21 | inactive: -10.7%
COc1cc(CNc2ccc3[nH]c(=O)[nH]c3c2)cc(Br)c1OCc1ccccc1F | inactive: -21.4%
Cc1cccc(CN2CCN(CC(=O)Nc3c(C)cccc3C)S2(=O)=O)c1 | inactive: -2.17%
Cc1ccc(C)n1-c1nnc(N2CCCC(C(=O)NCc3cccc(Br)c3)C2)s1 (centres undefined) | inactive: -5.84%
COCCNC(=O)CSc1nc(-c2ccccc2)[nH]c1-c1ccc(C)cc1 | inactive: -3.2%
Cc1cccc(C(=O)Nc2ccc(N3CCC(N4CCCCC4)CC3)c(C(=O)O)c2)c1 | inactive: -4.13%
Cc1ccc(Cl)cc1NC(=O)CC1Sc2ccccc2NC1=O (centres undefined) | inactive: 0.121%
Cc1ccc(CNC(=O)CCc2c(C)nc3c4c(C)cc(C)nc4nn3c2C)cc1 | inactive: 1.73%
CC1=C(C(=O)NCc2ccc(Cl)cc2)C2(CCC(C)CC2)OC1=O (centres undefined) | inactive: 10.1%
NC1=NC(c2cc(F)cc(F)c2)n2c(nc3ccccc32)N1 (centres undefined) | inactive: 20.3%
CCOC(=O)c1ccc2c(c1)N(Cc1ccc(F)cc1Cl)C(=O)c1ccccc1S2 | inactive: -4.04%
